# Data from publication PMC4336329 (PLoS ONE, 2015).
# Screen size: about 310,000 compounds; about 14,000 (4.5%) showed an effect of 50% or more. Effects have a minus sign here. This is one part of the list.
# Molecular target: human ether-à-go-go-related gene (hERG) potassium channel (human, UniProt Q12809)
# Assay: primary screen, population patch clamp on CHO cells stably expressing hERG
# 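Also: peak tail current of the secondary pulse compared with the same well before compound.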
# Chain of human ether-à-go-go-related gene (hERG) potassium channel (Q12809 whole entry, looked up): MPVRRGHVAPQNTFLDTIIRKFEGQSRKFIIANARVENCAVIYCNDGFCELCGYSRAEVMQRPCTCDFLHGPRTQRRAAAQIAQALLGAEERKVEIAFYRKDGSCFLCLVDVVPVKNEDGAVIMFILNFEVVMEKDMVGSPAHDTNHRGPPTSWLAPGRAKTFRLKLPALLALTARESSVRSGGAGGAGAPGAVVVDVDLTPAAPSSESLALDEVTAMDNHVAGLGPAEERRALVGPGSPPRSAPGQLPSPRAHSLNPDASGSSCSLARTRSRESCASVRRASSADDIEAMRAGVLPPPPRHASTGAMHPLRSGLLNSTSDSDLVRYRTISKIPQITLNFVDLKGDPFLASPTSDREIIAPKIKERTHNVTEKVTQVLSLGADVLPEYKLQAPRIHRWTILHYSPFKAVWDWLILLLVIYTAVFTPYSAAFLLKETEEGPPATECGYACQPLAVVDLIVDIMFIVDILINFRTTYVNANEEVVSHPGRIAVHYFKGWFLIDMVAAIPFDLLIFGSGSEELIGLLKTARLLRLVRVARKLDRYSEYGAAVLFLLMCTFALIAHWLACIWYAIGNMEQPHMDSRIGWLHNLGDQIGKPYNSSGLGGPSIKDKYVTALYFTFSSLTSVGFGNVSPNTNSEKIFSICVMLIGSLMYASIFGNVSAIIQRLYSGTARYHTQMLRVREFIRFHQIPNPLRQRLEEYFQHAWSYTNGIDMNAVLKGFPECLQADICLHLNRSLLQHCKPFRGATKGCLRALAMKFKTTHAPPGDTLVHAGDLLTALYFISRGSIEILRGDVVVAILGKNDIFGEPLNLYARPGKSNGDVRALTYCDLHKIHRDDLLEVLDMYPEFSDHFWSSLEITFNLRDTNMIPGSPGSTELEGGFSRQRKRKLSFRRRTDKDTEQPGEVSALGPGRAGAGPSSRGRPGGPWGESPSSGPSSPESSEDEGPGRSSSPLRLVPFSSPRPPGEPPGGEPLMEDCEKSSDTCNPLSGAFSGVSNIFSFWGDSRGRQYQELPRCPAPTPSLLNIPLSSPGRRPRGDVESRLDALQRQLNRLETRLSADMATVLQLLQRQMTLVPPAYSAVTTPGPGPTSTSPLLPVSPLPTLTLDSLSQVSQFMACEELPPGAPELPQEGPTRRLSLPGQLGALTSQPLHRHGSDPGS
row,SMILES,"hERG current change (%, negative = inhibition) at 10uM [%]"
1,CC(C)C[C@@H]1NC(=O)[C@H](Cc2ccc(O)cc2)NC(=O)[C@H](CCC(N)=O)NC(=O)c2cc([N+](=O)[O-])cc(I)c2NCC[C@@H](C(N)=O)NC1=O,11.4
2,Cc1cc(OC(=O)c2ccc(C(C)(C)C)cc2)c([N+](=O)[O-])c(=O)[nH]1,21.8
3,O=C(NCC(c1cccnc1)N1CCOCC1)c1ccc2c(c1)OCO2 (stereo not shown),-7.78
4,Cc1cc2ccccn2c1C(=O)Nc1ccc(Cl)cc1,1.3
5,C=CCn1c(CSc2nc3ccccc3s2)nnc1SCC(=O)NCCN1CCOCC1,-20.1
6,O=C(Nc1ccc(N2CCN(C(=O)c3cccs3)CC2)c(Cl)c1)c1ccco1,3.96
7,COc1cccc(NC(=O)OCCN2CCN(Cc3ccccc3)CCC2=O)c1,-18.8
8,COc1ccc(NC(=O)/C(C#N)=C/c2ccc(Sc3nncn3C)c([N+](=O)[O-])c2)cc1,8.05
9,Cc1ccc(Nc2nc(NCCO)nc(N3CCCC3)n2)cc1,-17.7
10,O=C(c1ccc(Cl)cc1)c1oc2ccccc2c1CS(=O)c1ccc(Cl)cc1 (stereo not shown),-2.42
11,Cc1ccc(NC(=O)C2CCCN(S(=O)(=O)c3c(C)noc3/C=C/N(C)C)C2)c(C)c1 (stereo not shown),3.67
12,COc1cc2c(cc1OC)/C(=C/C(=O)c1ccc(C)cc1)NCC2,-24.5
13,O=C(Cn1cc(S(=O)(=O)N2CCCC2)c(S(=O)(=O)N2CCCC2)c1)NCc1ccco1,17.3
14,CC(C)Cc1ccc(S(=O)(=O)N2CCOCC2)cc1,-42.8
15,Cc1ccc(-n2c(=O)c3c(C)c(C)sc3n(Cc3cc(=O)n4ccccc4n3)c2=O)cc1C,-4.43
16,O=C(NCc1ccccc1)c1cccnc1N1CCOCC1,20.6
17,CC1(c2nnc(-c3ccccc3)o2)CC(c2ccncc2)=NO1 (stereo not shown),-8.27
18,COc1ccc(N(CC(=O)N/N=C(\C)CCc2ccccc2)S(=O)(=O)c2ccc(C)cc2)cc1,-20.3
19,Cc1nn(CC(=O)Nc2cccnc2)c(=O)c2ccccc12,-3.17
20,O=[N+]([O-])c1ccc(C2CCCC/C2=N/O)c([N+](=O)[O-])c1 (stereo not shown),7.62
21,O=C(NCC1CC1)c1cc(-c2ccccc2)nn1CC1CC(c2cccnc2)=NO1 (stereo not shown),-25
22,Nc1nnc(SCC(=O)Nc2nccs2)s1,6.72
